B1: GPR68, Q15743 (parent)
chain: MGNITADNSSMSCTIDHTIHQTLAPVVYVTVLVVGFPANCLSLYFGYLQIKARNELGVYLCNLTVADLFYICSLPFWLQYVLQHDNWSHGDLSCQVCGILLYENIYISVGFLCCISVDRYLAVAHPFRFHQFRTLKAAVGVSVVIWAKELLTSIYFLMHEEVIEDENQHRVCFEHYPIQAWQRAINYYRFLVGFLFPICLLLASYQGILRAVRRSHGTQKSRKDQIQRLVLSTVVIFLACFLPYHVLLLVRSVWEASCDFAKGVFNAYHFSLLLTSFNCVADPVLYCFVSETTHRDLARLRGACLAFLTCSRTGRAREAYPLGAPEASGKSGAQGEEPELLTKLHPAFQTPNSPGSGGFPTGRLA

Variants of B1 are the subject of data set [1]. Description: cAMP reporter score (Enrich2 score, wild type = 0); higher = more signal; HEK293T, FACS bins.
In data set [2] the parent is B1. The experiment in a line: surface expression score (Enrich2 score, wild type = 0); higher = more signal; HEK293T, FACS bins.

Scores with a large standard error are left out. Not listed are two conditions whose scores span a narrow range. Names with del lack the residues named; names with ins carry added residues between the positions named. For some of these results: How much ogerin was present is not stated here.

This is an account of results in the GPR68 mutational scans of Howard et al. (2025).

For the variant MGNITADNSSMSCTIDHTIHQTLAPVVYVTVLVVGFPANCLSLYFGYLQIKARNELGVYLCNLTVADLFYICSLPFWLQYVLQHDNWSHGDLSCQVCGILLYENIYISVGFLCCISVDRYLAVAHPFRFHQFRTLKAAVGVSVVIWAKELLTSIYFLMHEEVIEDENQHRVCFEHYPIQAWQRAINYYRFLVGFLFPICLLLASYQGILRAVRRSHGTQKSRKDQIQRLVLSTVVIFLACFLPYHVLLLVRSVWEASCDFAKGVFNAYHFSLLLTSFNCVADPVLYCFVSETTHRDMARLRGACLAFLTCSRTGRAREAYPLGAPEASGKSGAQGEEPELLTKLHPAFQTPNSPGSGGFPTGRLA [L297M], the cAMP reporter score is 0.565 in data set [1] (pH 5.5); 0.824 in data set [1] (pH 6, modulator: ogerin); 0.912 in data set [1] (pH 6.5, modulator: ogerin). In addition, the surface expression score in data set [2] is 1.36.
Consider MGNITADNSSMSCTIDHTIHQTLAPVVYVTVLVVGFPANCLSLYFGYLQIKARNELGVYLCNLTVADLFYICSLPFWLQYVLQHDNWSHGDLSCQVCGILLYENIYISVGFLCCISVDRYLAVAHPFRFHQFRTLKAAVGVSVVIWAKELLTSIYFLMHEEVIEDENQHRVCFEHYPIQAWQRAINYYRFLVGFLFPICLLLASYQGILRAVRRSHGTQKSRKDQIQRLVLSTVVIFLACFLPYHVLLLVRSVWEASCDFAKGVFNAYHFSLLLTSFNCVADPVLYCFVSETTHRDQARLRGACLAFLTCSRTGRAREAYPLGAPEASGKSGAQGEEPELLTKLHPAFQTPNSPGSGGFPTGRLA [L297Q], for which the cAMP reporter score in data set [1] (pH 5.5) was -1.3; in data set [1] (pH 6), -0.675; in data set [1] (pH 6, modulator: ogerin) it was -1.11; in data set [1] (pH 6.5, modulator: ogerin) it was -1.27. In data set [2], the surface expression score is -0.159.
For the variant MGNITADNSSMSCTIDHTIHQTLAPVVYVTVLVVGFPANCLSLYFGYLQIKARNELGVYLCNLTVADLFYICSLPFWLQYVLQHDNWSHGDLSCQVCGILLYENIYISVGFLCCISVDRYLAVAHPFRFHQFRTLKAAVGVSVVIWAKELLTSIYFLMHEEVIEDENQHRVCFEHYPIQAWQRAINYYRFLVGFLFPICLLLASYQGILRAVRRSHGTQKSRKDQIQRLVLSTVVIFLACFLPYHVLLLVRSVWEASCDFAKGVFNAYHFSLLLTSFNCVADPVLYCFVSETTHRDKARLRGACLAFLTCSRTGRAREAYPLGAPEASGKSGAQGEEPELLTKLHPAFQTPNSPGSGGFPTGRLA [L297K], the cAMP reporter score was -0.982 in data set [1] (pH 5.5); -1.06 in data set [1] (pH 6); -0.952 in data set [1] (pH 6, modulator: ogerin); -1.23 in data set [1] (pH 6.5, modulator: ogerin). Moreover, in data set [2], the surface expression score is -0.342.
In the case of MGNITADNSSMSCTIDHTIHQTLAPVVYVTVLVVGFPANCLSLYFGYLQIKARNELGVYLCNLTVADLFYICSLPFWLQYVLQHDNWSHGDLSCQVCGILLYENIYISVGFLCCISVDRYLAVAHPFRFHQFRTLKAAVGVSVVIWAKELLTSIYFLMHEEVIEDENQHRVCFEHYPIQAWQRAINYYRFLVGFLFPICLLLASYQGILRAVRRSHGTQKSRKDQIQRLVLSTVVIFLACFLPYHVLLLVRSVWEASCDFAKGVFNAYHFSLLLTSFNCVADPVLYCFVSETTHRDPARLRGACLAFLTCSRTGRAREAYPLGAPEASGKSGAQGEEPELLTKLHPAFQTPNSPGSGGFPTGRLA [L297P], the cAMP reporter score in data set [1] (pH 5.5) is -1.18; in data set [1] (pH 6), -0.712; in data set [1] (pH 6, modulator: ogerin), -1.06; in data set [1] (pH 6.5, modulator: ogerin), -1.21. The surface expression score in data set [2] was -0.176.
